In PubChem BioAssay AID1963576 (National Center for Advancing Translational Sciences (NCATS), 2024):
About 60 (0.1%) of roughly 46,000 compounds were called active. Not shown: some 3% with an inconclusive outcome. The call rests on the fitted dose curve; in most records, active means well fitted inhibition curve with a large enough effect; inconclusive means small, poorly fitted or top-dose-only effect; inactive means no such curve, though single readings can be large or run the other way. The list shows a part of the results.

assay: Primary qHTS assay for Inhibitors of ovarian cancer metastasis using an organotypic tumor microenvironment (TME) model.; further: nearly all actives have a fitted effect of over 65% in size;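 on activity change, negative = inhibition: plate controls were DMSO wells for no effect and tomatine positive control wells for full effect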; conditions: SKOV3ip1-GFP adhesion/invasion on 3D omental model, fluorescence; series mostly up to 45.8 µM; activity change, negative = inhibition: at the top concentration
In short: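 Adhesion/invasion was scored as fixed GFP-labeled SKOV3ip1 cell counts (488/509 nm), normalized to DMSO and tomatine controls. Cancer cells in serum-free medium, with four compound doses (0.36-46 umol/L), sat 2 hr at RT then 16 hr at 37 C on a 48 hr fibroblast/mesothelial/ECM culture.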

Activity change, negative = inhibition, inactive:
Cc1ccc(SCc2nc(-c3ccc(C(=O)Nc4cc(C)ccc4C)cc3)oc2C)cc1 -29.8%
O=C(Nc1nnc(C2CC(=O)N(c3ccc(Cl)cc3)C2)s1)c1ccco1 (stereo unspecified) 8%
Cc1ccc(NC(=O)CSc2nc3ccc(NC(=O)COc4ccc(C)cc4)cc3s2)cc1 9.55%
C[C@@H]1CN(Cc2ccc(F)cc2)[C@@H](C)CN1C(=O)c1cc2c(C(=O)C(=O)N(C)C)cn(C)c2cc1Cl 5.4%
Cc1nc2nc(SCC(=O)NCCc3ccc(Cl)cc3)nn2c(C)c1Cc1ccccc1Cl -1.98%
Cc1ccccc1C1=CCN(c2ncc(NC(=O)c3ccc(Cl)cc3)cc2C(=O)O)CC1 -7.72%
CCOc1ccccc1NC(=O)Nc1cc2c(cc1N1CCCCC1)n(CC)c(=O)n2CC -1.69%
CCOC(=O)c1ccc(NC(=O)CSc2nccn2-c2cc(C)cc(C)c2)cc1 4.66%
CC(=O)c1ccc(N2CCN(C(=O)CCn3cnc4onc(-c5ccc(F)cc5)c4c3=O)CC2)cc1 9.5%
Cc1ccc(-c2noc(-c3cc(-c4ccc(F)cc4)n[nH]3)n2)cc1 -23.4%
O=C(Nc1c(-c2ccccc2)nc2ccccn12)c1ccccc1F -2.77%
CCN(C(=O)C1CCCN(c2ncnc3c2nc2n3CCCCC2)C1)c1cccc(C)c1 (stereo unspecified) 10.4%
Cc1ccc(NC(=O)CN2C(=O)c3ccccc3Sc3ccc(C(=O)N4CCOCC4)cc32)c(Cl)c1 8.96%
CCN(CC)S(=O)(=O)c1ccc2oc(C(=O)Nc3cc(C)ccc3OC)c(C)c2c1 -12.8%
CCc1cc2c(cc3c(=O)n(CC(=O)NCc4cc(Br)ccc4OC)ncn32)s1 8.02%
Cn1cccc1-c1cc2n(n1)CCC(=O)N2CCCC(=O)NCc1ccc(F)cc1 1.32%
CCOc1ccc(-c2nnc(SCC(=O)c3ccccc3)n2-c2ccccc2)cc1 -7.24%
COC(=O)CNC(=O)N1CCN(S(=O)(=O)c2ccc3c(ccn3C)c2)CC1 -9.75%
CCOc1ccc(NC(=O)C2CCN(S(=O)(=O)c3c(C)noc3/C=C/c3cccs3)CC2)cc1 -1.4%
CCCCNC(=O)CN1C(=O)COc2ccc(S(=O)(=O)N3CCCCCC3)cc21 4.31%
COc1ccc2cc(CNc3ccc(OC)c(OC)c3)c(=O)n(CC(=O)Nc3ccccc3F)c2c1 4.22%
CCOC(=O)c1[nH]c(C)c(CCC(=O)Nc2cccc(SC)c2)c1C 2.17%
Cc1cc(=O)[nH]c2nnc(SCc3ccc(C(F)(F)F)cc3)n12 -5.95%
Cc1cccc(C)c1NC(=O)Cn1c(SCC(=O)NCc2ccccc2)nc2ccccc21 0.658%
Cc1ccc(NC(=O)c2ncoc2-c2ccco2)cc1Cl 1.16%
Fc1cccc(Cl)c1CNCCSc1nnnn1-c1ccccc1 2.19%
O=C(Nc1cc2ccc(O)cc2oc1=O)c1ccccc1 -23.8%
CC(C)CCNC(=O)c1ccc2c(c1)N(Cc1ccccc1F)C(=O)c1ccccc1S2(=O)=O -7.42%
COc1cccc(C(=O)N(Cc2ccco2)c2ccccn2)c1 3.58%
CCN1C(=O)c2ccccc2S(=O)c2ccc(C(=O)NCc3ccc(C)cc3)cc21 (stereo unspecified) -9.89%
COc1ccc(NC(=O)CC2C(=O)N(c3ccccc3)C(=O)N2CCC2=CCCCC2)cc1 (stereo unspecified) -2.11%
Cc1ccc2c(c1)c(=O)c(C(=O)c1ccccc1)cn2Cc1ccccc1F -16.2%
Cc1cccc(N2CC(c3nc4ccc(C)cc4[nH]3)CC2=O)c1 (stereo unspecified) 12.9%
CCOc1ccccc1C1C(C(N)=O)=C(C)Nc2nc(-c3ccccc3Cl)nn21 (stereo unspecified) 6.27%
COc1ccc(/C=C(/C#N)c2nc(-c3cc4ccccc4oc3=O)cs2)cc1 1.26%
Cc1c(CNC2CCC(C)CC2)c(C(=O)O)c(C)n1Cc1ccccc1F (stereo unspecified) 2.1%
Cn1ccc2cc(S(=O)(=O)N3CCCC(C(=O)NCc4ccc(F)cc4)C3)ccc21 (stereo unspecified) -6.58%
Cc1cc(C)n(CCc2nc3c4ccccc4nc(SCc4ccc(Cl)cc4)n3n2)n1 12.2%
CCOc1ccc(NC(=O)CC2C(=O)N(c3ccc(C)cc3)C(=O)N2C2CCCCC2)cc1 (stereo unspecified) 2.19%
N#Cc1cccc(NC(=O)C2CCN(c3cnccn3)CC2)c1 -0.245%
CC(=O)Nc1ccc(NC(=O)c2cc3c(=O)n(Cc4cccnc4)ccc3nc2C)cc1 -1.26%
CCOc1ccccc1-c1noc(CCCC(=O)Nc2cccc(C(F)(F)F)c2)n1 -4.67%
COC(=O)c1ccc(C2C=C(c3ccc(Cl)cc3)Nc3nc4ccccc4n32)cc1 (stereo unspecified) -18.1%

outcome, inactive:
COc1ccccc1N1CCN(C(=O)CCn2nc(C)c(S(=O)(=O)N3CCCC3)c2C)CC1
Cc1nc2c(-c3ccccc3)c(C)nn2c(C)c1CCC(=O)Nc1ccccc1F
CCOc1ccccc1CNCc1c(C(=O)O)n(Cc2ccc(F)cc2)c2cc(C)ccc12
O=C1CC(c2ccc(F)cc2)c2c(c3ccccc3[nH]c2=O)O1 (stereo unspecified)
Cc1cc(C)cc(NC(=O)CNS(=O)(=O)c2ccc3nc(C)sc3c2)c1
CCn1cc(C(=O)NCCc2ccc(C)cc2)c(=O)c2cc(S(=O)(=O)N3CCc4ccccc4C3)ccc21
CCOc1ccc(OC(=O)c2c(-c3ccccc3Cl)noc2C)cc1
CN1C(=O)Cc2cc(S(=O)(=O)CCC(=O)Nc3ccc(OC(F)(F)F)cc3)ccc21
COc1ccc(C(=O)Nc2ccc3oc(-c4ccc5ccccc5c4)nc3c2)cc1Br
O=C(CNC(=O)c1ccccc1F)OCc1cc(=O)n2nc(C3CCCCC3)sc2n1
COc1cc(NC(=O)C2CCN(S(=O)(=O)c3c(C)noc3/C=C/c3cccs3)CC2)cc(OC)c1
COc1ccc(S(=O)(=O)N(CC(=O)Nc2ccc(OC)cc2OC)c2ccc(Cl)cc2)cc1
CCOc1cccc(C(=O)Nc2nnc(S(=O)(=O)N(C)c3ccc(C)cc3)s2)c1
CCC1CN(C(=O)Nc2ccccc2C(F)(F)F)c2ccccc2O1 (stereo unspecified)
COc1ccc(-c2nc(SCC(=O)c3ccc(Br)cc3)n[nH]2)cc1
O=C(NC1(C(F)(F)F)N=C(c2ccccc2)N(C2CCCCC2)C1=O)c1ccc(F)cc1 (stereo unspecified)
O=C(CSc1nc(-c2ccc(F)cc2)nc2c1Cc1ccccc1O2)Nc1cccc(C(=O)O)c1
CC(=O)N1CCc2c(sc3c2c(=O)n(-c2ccccc2C)c(=O)n3CC(=O)c2ccccc2)C1
